Data set [1] can be described thus: EDTA or DTPA challenge of purified 134Ce-labeled h11b6 conjugates (iTLC). The format is physicochemical. The note with it: 30 minutes, immediately after purification. The procedure: Immediately after purification, 25 μL of the purified product in vial ‘Elution’ was incubated with 50 μL of either 10 mM EDTA, pH˜6 or 10 mM DTPA, pH˜7 at 37° C. and 300 rpm for 30 minutes. 2 μL of the mixture was spotted on an TLC strip (SA) and eluted with a 10 mM EDTA solution (pH˜6).

A short description of data set [2]: Stability of purified 134Ce-labeled h11b6 conjugates stored at 2-8° C. (iTLC). The data set is classed as physicochemical. Here is the method:
The purified ^134Ce-TOPA-h11b6 was stored at 2-8° C. Radiochemical purity was assessed by iTLC. The radiochemical purity at 4 h, was 99.1%, FIG. 15.
The purified ^134Ce-DOTA-h11b6 was stored at 2-8° C. Radiochemical purity was assessed by TLC. The radiochemical purity at 4 h was 96.3%, FIG. 16.

For data set [3], the system named is biotinyated hk2-FXa. Nature of the data set: Immunoreactive fraction, hk2-coated Dynabeads. The data set is classed as binding, human. Here is the method: Preparation of the Control beads: To each of two 2 ml Eppendorf tubes labeled C1 and C2 rinsed with 1 mL of 1% PBSF and the rinsate discarded. To each rinsed tube was added 1% PBSF (300 uL). Into C1 and C2 was added Dynabeads Streptavidin T1 (MS 0013) (40 uL).
Preparation of the QC sample: Into a 2 ml Eppendorf tube was added 1 mL of 1% PBSF, rinsed and the rinsate discarded. A further aliquot of 1% PBSF (1000 uL) was added followed by a sample of 134Ce-TOPA-h11b6 (5 uL). The tube was capped and gently swirled.
Preparation of the reference vials: To each of three 2 ml Eppendorf tubes labeled RF1, RF2 and RF3 was added 1 mL of 1% PBSF and the rinsate discarded. To each rinsed tube was added 1% PBSF (700 uL). […]
Tubes RF1, RF2, RF3, BCK1, BCK2, BCK3, Cl, C1-SUP, C1R1, C1R2, C1BD, C2, C2-SUP, C2R1, C2R2, C2BD, P1, P1-SUP, P1R1, P1R2, P1BD, P2, P2-SUP, P2R1, P2R2 and P2BD were placed in a gamma counter and counted.
All measurements were background subtracted. The average reference counts were determined. Non-specific binding was calculated by dividing the average of C1BD and C2BD by the average reference RF1, RF2 and RF3 divided by 3. The total binding was calculated from the average of P1BD+P2BD divided by the average reference. The immunoreactivity was calculated by subtracting the total non-specific binding from the total binding and multiplying by 100. […]

Several values for one entry are separate records, joined by “and”; a condition that tells them apart may be missing. Equal entries are not always repeated.

B1: ^134Ce-TOPA-h11b6 (conjugate)
heavy: QVQLQESGPGLVKPSDTLSLTCAVSGNSITSDYAWNWIRQPPGKGLEWIGYISYSGSTTYNPSLKSRVTMSRDTSKNQFSLKLSSVTAVDTAVYYCATGYYYGSGFWGQGTLVTVSS[left out - human IgG1 constant region]
light: DIVLTQSPDSLAVSLGERATINCKASESVEYFGTSLMHWYQQKPGQPPKLLIYAASNRESGVPDRFSGSGSGTDFTLTISSLQAEDVAVYYCQQTRKVPYTFGQGTKLEIKRTVAAPSVFIFPPSDEQLKSGTASVVCLLNNFYPREAKVQWKVDNALQSGNSQESVTEQDSKDSTYSLSSTLTLSKADYEKHKVYACEVTHQGLSSPVTKSFNRGEC
Consider B1, for which, in data set [1] (10 mM DTPA pH~7, 37° C.), the “intact radioconjugate after DTPA challenge” value is 89.0% and 89.4%. Also, the “intact radioconjugate after EDTA challenge” value in data set [1] (10 mM EDTA pH~6, 37° C.) is 91.0% and 90.0%. For the same molecule, the “radiochemical purity at 4 h” value in data set [2] turned out to be 99.1%. Besides, the “Immunoreactive Fraction (IRF)” value came out at 95.5% in data set [3] (0 hr post synthesis) and 96.5% in data set [3] (24 hrs post synthesis).

Source of the values: patent US20250145646A1, “MACROCYCLIC COMPOUNDS AND DIAGNOSTIC USES THEREOF” (JANSSEN BIOTECH, INC., priority 2021, published 2025).
